Results from PMC6262623.
Results are given in words; binding and its absence hold for the method and conditions named. In cells and extracts the contact can be indirect. Some entries that bind do so weakly or less than the wild type.

Chains of the proteins cited; added tags and fusions are not shown. Lines headed by an entry give the natural chain unless they say otherwise; changes in a name come on top.
UniProt Q3U5C8: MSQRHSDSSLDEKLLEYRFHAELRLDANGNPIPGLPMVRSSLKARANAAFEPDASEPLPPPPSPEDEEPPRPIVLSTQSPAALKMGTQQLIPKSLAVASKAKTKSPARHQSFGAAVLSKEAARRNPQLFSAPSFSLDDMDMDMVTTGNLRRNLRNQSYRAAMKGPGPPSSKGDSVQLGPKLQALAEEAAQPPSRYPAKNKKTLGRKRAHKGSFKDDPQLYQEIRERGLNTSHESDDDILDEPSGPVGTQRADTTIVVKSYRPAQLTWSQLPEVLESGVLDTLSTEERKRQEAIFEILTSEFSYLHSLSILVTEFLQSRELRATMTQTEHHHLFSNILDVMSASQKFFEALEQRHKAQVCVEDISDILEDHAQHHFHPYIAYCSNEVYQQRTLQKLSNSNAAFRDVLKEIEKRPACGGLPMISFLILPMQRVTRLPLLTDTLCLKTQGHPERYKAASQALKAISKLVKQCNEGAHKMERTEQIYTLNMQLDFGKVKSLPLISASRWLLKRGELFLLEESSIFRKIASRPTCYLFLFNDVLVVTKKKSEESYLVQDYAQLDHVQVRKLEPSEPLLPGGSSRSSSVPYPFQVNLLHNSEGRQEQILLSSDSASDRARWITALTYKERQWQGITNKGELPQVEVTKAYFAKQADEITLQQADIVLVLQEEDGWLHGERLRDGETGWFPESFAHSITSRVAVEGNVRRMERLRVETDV
UniProt P84095: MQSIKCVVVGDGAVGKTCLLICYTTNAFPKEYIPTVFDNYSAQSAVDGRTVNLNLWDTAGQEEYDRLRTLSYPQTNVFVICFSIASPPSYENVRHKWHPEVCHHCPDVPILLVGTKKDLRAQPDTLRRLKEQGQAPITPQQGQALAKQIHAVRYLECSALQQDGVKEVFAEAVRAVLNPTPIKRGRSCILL

Assays:
[1] = target: FLAG-tagged Ephexin4^E295A (murine) (UniProt Q3U5C8); assay: co-IP; RhoG-GEF binding assay: 293T cells co-transfected; lysis and wash buffer additionally with 10 mM EDTA; FLAG-conjugated agarose beads, immunoblotting
[2] = target: FLAG-tagged wild-type Ephexin4 (murine) (UniProt Q3U5C8); assay: as above

Substance: GFP-RhoG (from UniProt P84095 1-191)
- binding [1]: binds
- binding [2]: binds
